The text below walks through data of US20110286916A1.

Where only a bound is given, the exact number is not on record here.

Assay [1] deals with human Notch1-Gal4 chimeric receptor on U2OS FlpIn TREx cells (human), P46531. In words: cell-based or functional assay.
The target of assay [2] is human Notch2-Gal4 chimeric receptor on U2OS FlpIn TREx cells (human), Q04721. In words: cell-based or functional assay.
Sequence of human Notch2-Gal4 chimeric receptor on U2OS FlpIn TREx cells (human), Q04721 (Q04721 26-2471, change not shown): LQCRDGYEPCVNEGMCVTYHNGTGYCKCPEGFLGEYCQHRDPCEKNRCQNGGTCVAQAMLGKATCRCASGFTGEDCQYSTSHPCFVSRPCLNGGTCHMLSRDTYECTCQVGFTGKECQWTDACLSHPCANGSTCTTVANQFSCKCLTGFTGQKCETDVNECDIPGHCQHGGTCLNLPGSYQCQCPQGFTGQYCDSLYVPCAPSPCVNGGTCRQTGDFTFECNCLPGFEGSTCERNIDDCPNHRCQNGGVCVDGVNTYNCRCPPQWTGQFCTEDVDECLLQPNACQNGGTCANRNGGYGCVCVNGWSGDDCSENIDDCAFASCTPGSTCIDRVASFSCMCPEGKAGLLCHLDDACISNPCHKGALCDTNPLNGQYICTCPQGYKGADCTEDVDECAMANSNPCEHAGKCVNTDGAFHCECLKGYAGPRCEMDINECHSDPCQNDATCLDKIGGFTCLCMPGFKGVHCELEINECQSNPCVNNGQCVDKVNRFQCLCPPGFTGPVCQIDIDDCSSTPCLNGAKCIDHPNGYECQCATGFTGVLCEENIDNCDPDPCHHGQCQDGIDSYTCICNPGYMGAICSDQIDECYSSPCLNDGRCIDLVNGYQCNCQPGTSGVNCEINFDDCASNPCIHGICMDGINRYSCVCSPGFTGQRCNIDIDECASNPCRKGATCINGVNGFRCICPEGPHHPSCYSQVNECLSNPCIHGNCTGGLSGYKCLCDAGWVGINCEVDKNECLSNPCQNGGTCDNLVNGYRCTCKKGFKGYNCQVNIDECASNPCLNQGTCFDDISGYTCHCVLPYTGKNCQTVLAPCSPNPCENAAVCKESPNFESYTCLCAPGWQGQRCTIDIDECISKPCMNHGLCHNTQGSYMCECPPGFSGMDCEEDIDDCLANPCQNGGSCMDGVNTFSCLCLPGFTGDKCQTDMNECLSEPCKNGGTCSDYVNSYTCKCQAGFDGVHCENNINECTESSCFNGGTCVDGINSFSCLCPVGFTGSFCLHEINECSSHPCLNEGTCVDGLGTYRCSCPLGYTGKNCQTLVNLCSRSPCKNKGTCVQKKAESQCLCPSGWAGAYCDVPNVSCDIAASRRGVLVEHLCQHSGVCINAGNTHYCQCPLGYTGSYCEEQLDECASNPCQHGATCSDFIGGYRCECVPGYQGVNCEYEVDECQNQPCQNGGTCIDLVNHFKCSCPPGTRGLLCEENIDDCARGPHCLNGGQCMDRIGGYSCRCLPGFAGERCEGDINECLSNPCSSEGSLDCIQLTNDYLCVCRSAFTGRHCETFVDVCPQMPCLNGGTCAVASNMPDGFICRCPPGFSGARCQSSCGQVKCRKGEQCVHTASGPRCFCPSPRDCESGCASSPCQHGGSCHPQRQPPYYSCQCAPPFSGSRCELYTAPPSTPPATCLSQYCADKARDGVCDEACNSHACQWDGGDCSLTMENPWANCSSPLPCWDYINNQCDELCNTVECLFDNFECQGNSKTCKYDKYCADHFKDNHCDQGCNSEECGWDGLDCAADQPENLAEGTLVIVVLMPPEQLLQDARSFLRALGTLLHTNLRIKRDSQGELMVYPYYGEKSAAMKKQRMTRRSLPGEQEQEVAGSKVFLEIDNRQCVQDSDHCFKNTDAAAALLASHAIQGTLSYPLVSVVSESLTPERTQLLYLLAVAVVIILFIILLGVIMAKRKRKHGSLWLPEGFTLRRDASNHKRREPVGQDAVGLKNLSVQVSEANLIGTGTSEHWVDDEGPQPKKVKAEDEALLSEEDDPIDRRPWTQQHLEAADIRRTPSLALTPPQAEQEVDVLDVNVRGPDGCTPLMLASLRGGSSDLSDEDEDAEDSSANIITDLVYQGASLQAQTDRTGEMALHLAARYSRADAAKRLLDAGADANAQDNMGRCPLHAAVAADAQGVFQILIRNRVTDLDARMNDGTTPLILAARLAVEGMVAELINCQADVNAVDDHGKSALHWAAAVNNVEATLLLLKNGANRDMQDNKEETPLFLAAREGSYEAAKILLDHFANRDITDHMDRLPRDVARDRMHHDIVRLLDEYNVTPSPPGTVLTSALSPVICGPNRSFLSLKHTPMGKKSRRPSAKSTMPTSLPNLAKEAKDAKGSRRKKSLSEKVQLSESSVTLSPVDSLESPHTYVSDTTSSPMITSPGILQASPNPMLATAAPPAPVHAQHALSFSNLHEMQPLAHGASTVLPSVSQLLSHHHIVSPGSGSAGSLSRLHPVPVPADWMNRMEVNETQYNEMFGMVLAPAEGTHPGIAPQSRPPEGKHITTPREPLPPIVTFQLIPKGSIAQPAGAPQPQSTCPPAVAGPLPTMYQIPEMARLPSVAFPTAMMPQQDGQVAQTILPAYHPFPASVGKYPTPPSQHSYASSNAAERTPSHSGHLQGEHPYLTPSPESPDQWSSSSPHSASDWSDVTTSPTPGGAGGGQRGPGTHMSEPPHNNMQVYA

B1: WC-159 (antibody, human IgG1, lambda)
heavy: QLQLVETGGGLVKPGESLTLSCAASGFTFSSYSMNWVRQAPGKGLEWVSSISSSGSSIYYADSLKGRFTISRDNAKNSLYLQMNSLRAEDTAVYYCTRGTQWLAGVGDYWGKGTLVTVSSASTKGPSVFPLAPSSKSTSGGTAALGCLVKDYFPEPVTVSWNSGALTSGVHTFPAVLQSSGLYSLSSVVTVPSSSLGTQTYICNVNHKPSNTKVDKRV[human IgG1 Fc not spelt out]
light: QSALTQPPSASASPGQSVTISCTGTSSDVGAYDSVSWYQQHPGKAPKLIIYDVNNRPSGVSNRFSGSESGNTASLTISGLQAEDEANYYCSSYRNTKTVVFGGGTKLTVLQPKANPTVTLFPPSSEELQANKATLVCLISDFYPGAVTVAWKADGSPVKAGVETTKPSKQSNNKYAASSYLSLTPEQWKSHRSYSCQVTHEGSTVEKTVAPTECS
Take B1: the hN1 (IC50, nM), Jag2-induced Notch1-Gal4 luciferase reporter in assay [1] was determined as 147 nM. Besides, the hN2, inhibition of Luc activity at [166 nM] Mab in assay [2] was below 10%.

B2: FL-SKNAS-D2-268 (antibody, human IgG1, lambda)
heavy: [about 100 residues not spelt out]HGHSSGYFVYWGKGTMVTVSSASTKGPSVFPLAPSSKSTSGGTAALGCLVKDYFPEPVTVSWNSGALTSGVHTFPAVLQSSGLYSLSSVVTVPSSSLGTQTYICNVNHKPSNTKVDKRV[human IgG1 Fc not spelt out]
light: QAVLTQPSSVSGAPGQRVTISCTGTSSNIGAPYDVNWYQQLPGIAPKLLISGNTNRPSGVPDRFSGSKSGASASLAITGLQADDEADYYCQSYDHSLSGWVFGGGTKVTVLGQPKAAPSVTLFPPSSEELQANKATLVCLISDFYPGAVTVAWKADSSPVKAGVETTTPSKQSNNKYAASSYLSLTPEQWKSHRSYSCQVTHEGSTVEKTVAPTECS
On to B2, for which, in assay [1], the hN1 (IC50, nM), reporter assay was above 333 nM. Moreover, the hN2, inhibition of Luc activity at [166 nM] Mab in assay [2] was below 5%.

B3: A2780-C2-16 (antibody, human IgG1, lambda)
heavy: EVQLVQSGAEVKKPGSSVKVSCKASGGTFSSFAFSWVRQAPGQGLDWMGRIIPILGRTNYAQKFQGRVTFTADTSTSTVYMELSSLSSEDTAVYYCARDREYSLSLGGSDYWGQGTLVTVSSASTKGPSVFPLAPSSKSTSGGTAALGCLVKDYFPEPVTVSWNSGALTSGVHTFPAVLQSSGLYSLSSVVTVPSSSLGTQTYICNVNHKPSNTKVDKRV[human IgG1 Fc not spelt out]
light: QAVLTQPSSVSGAPGQRVTISCIGSSSNIGAGYDVHWYRQPPGTAPQLLIYANTNRPSGVPDRFSGSRSGTSASLAITGIQAEDEADYYCQSYDSSLSGRVFGGGTKVTVLGQPKAAPSVTLFPPSSEELQANKATLVCLISDFYPGAVTVAWKADSSPVKAGVETTTPSKQSNNKYAASSYLSLTPEQWKSHRSYSCQVTHEGSTVEKTVAPTECS
The molecule B3 had a hN1 (IC50, nM), reporter assay in assay [1] of 0.583 nM. Besides, the hN2, inhibition of Luc activity at [166 nM] Mab in assay [2] was below 15%.

B4: WC-629 (antibody, human IgG1, lambda)
heavy: EVQLVQSGAEVKKPGSSVKVSCKASGGTLSSYTVSWLRQAPGQGLEWMGRIIPILDRANYAQKFQGRVTITADKSTSTAYMELNSLRSDDTAVYYCARSIGAAGDGVWFDPWGQGTMVTVSSASTKGPSVFPLAPSSKSTSGGTAALGCLVKDYFPEPVTVSWNSGALTSGVHTFPAVLQSSGLYSLSSVVTVPSSSLGTQTYICNVNHKPSNTKVDKRV[human IgG1 Fc not spelt out]
light: QAVLTQPSSVSGAPGQRVTISCTGSSSNIGAGYDVHWYQQLPGTAPKLLIFDNKNRPSGVPDRFSGSNSGTSASLAITGLQAEDEAEYYCQSYDNNLSGRVFGGGTKLTVLQPKANPTVTLFPPSSEELQANKATLVCLISDFYPGAVTVAWKADGSPVKAGVETTKPSKQSNNKYAASSYLSLTPEQWKSHRSYSCQVTHEGSTVEKTVAPTECS
B4: the hN1 (IC50, nM), Jag2-induced Notch1-Gal4 luciferase reporter in assay [1] came to 2.1 nM. Moreover, the hN2, inhibition of Luc activity at [166 nM] Mab in assay [2] was below 10%.

B5: FL-SKNAS-C2-514 (antibody, human IgG1, lambda)
heavy: EVQLVQSGAEVKEPGESLRISCKASGYDFSNYWIAWVRQMPGKGLEWMGIIYPGDSDTRYSPSFQGQVTISVDRSISTAYLQWSSLKASDTALYYCSRPTYWSTTWGREFDYWGQGTLVTVSSASTKGPSVFPLAPSSKSTSGGTAALGCLVKDYFPEPVTVSWNSGALTSGVHTFPAVLQSSGLYSLSSVVTVPSSSLGTQTYICNVNHKPSNTKVDKRV[human IgG1 Fc not spelt out]
light: SYELTQPPSVSVSPGQTATITCSGDALPKKYAYWYQQKSGQAPVLVVYEDSKRPSGIPERFSGSSSGTMATLTISGAQVEDEADYYCYSTDSSGNHWVFGGGTKLTVLGQPKAAPSVTLFPPSSEELQANKATLVCLISDFYPGAVTVAWKADSSPVKAGVETTTPSKQSNNKYAASSYLSLTPEQWKSHRSYSCQVTHEGSTVEKTVAPTECS
With B5, the hN1 (IC50, nM), reporter assay in assay [1] was above 333 nM. In assay [2], the hN2, inhibition of Luc activity at [166 nM] Mab was below 5%.

B6: WC-613 (antibody, human IgG1, lambda)
heavy: [about 100 residues not spelt out][about 120 residues not spelt out][human IgG1 Fc not spelt out]
light: SYELTQPPSASGTPGQRVTISCSGSYSNIGSNYVYWYQQLPGTAPKLLIYTNNQRPSGVPDRFSGSKSGTSASLVISGLRSDDEGDYYCAAWDDSVSVLLFGGGTKVTVLQPKANPTVTLFPPSSEELQANKATLVCLISDFYPGAVTVAWKADGSPVKAGVETTKPSKQSNNKYAASSYLSLTPEQWKSHRSYSCQVTHEGSTVEKTVAPTECS
In turn, B6 displayed a hN1 (IC50, nM), Jag2-induced Notch1-Gal4 luciferase reporter in assay [1] of 3.9 nM. Also, the hN2, inhibition of Luc activity at [166 nM] Mab in assay [2] is below 10%.

B7: FL-JEG3-C2-11 (antibody, human IgG1, lambda)
heavy: EVQLQLVETGGGLVQPVGSLRLSCAASGFSFDNYAMSWVRQAPGKGLEWVSSISGSGGQIFYADSVKGRFTISRDNAKNTLVLQMNSLRVDDTAVYYCARDFYRTPGYNTNWGYWGRGTMVTVSSASTKGPSVFPLAPSSKSTSGGTAALGCLVKDYFPEPVTVSWNSGALTSGVHTFPAVLQSSGLYSLSSVVTVPSSSLGTQTYICNVNHKPSNTKVDKRV[human IgG1 Fc not spelt out]
light: SYVLTQPPSVSVSPGETASISCSGDGLGNKYVAWYQQKPGQSPVLVIQQDSKRPSGIPERFSGSNSGDTATLTISGTQSLDEGDYYCQAWDRPAVIFGGGTKLTVLGQPKAAPSVTLFPPSSEELQANKATLVCLISDFYPGAVTVAWKADSSPVKAGVETTTPSKQSNNKYAASSYLSLTPEQWKSHRSYSCQVTHEGSTVEKTVAPTECS
B7 showed a hN1 (IC50, nM), reporter assay in assay [1] of 0.299 nM. In assay [2], this molecule came in with a hN2, inhibition of Luc activity at [166 nM] Mab below 5%.

B8: FL-SKNAS-C2-384 (antibody, human IgG1, lambda)
heavy: EVQLVQSGAEVKKPGSSVKVSCKASGGTLSSSAISWVRQAPGEGLEWMGGIIPMFDSTNYAQKFQGRVTITADESTSTAFMELSSLRSDDTAVYYCGRDPYYDRLSGGGYMDVWGQGTLVTVSSASTKGPSVFPLAPSSKSTSGGTAALGCLVKDYFPEPVTVSWNSGALTSGVHTFPAVLQSSGLYSLSSVVTVPSSSLGTQTYICNVNHKPSNTKVDKRV[human IgG1 Fc not spelt out]
light: SYVLTQPPSVSGALRQTATVTCTGNSSNVGNQGAAWLRQHQGRPPKLLSYRNNDRPSGVSQRFSASTSGNTASLTITGLQSEDEADYFCSAWDSSRSGWVFGGGTKLTVLGQPKAAPSVTLFPPSSEELQANKATLVCLISDFYPGAVTVAWKADSSPVKAGVETTTPSKQSNNKYAASSYLSLTPEQWKSHRSYSCQVTHEGSTVEKTVAPTECS
Consider B8, for which, in assay [1], the hN1 (IC50, nM), reporter assay is above 333 nM. In assay [2], the hN2, inhibition of Luc activity at [166 nM] Mab was below 5%.

B9: WC-155 (antibody, human IgG1, lambda)
heavy: EVQLVQSGAEVKKPGASVKVSCKASGYNFTGYYMHWVRQAPGQGLEWMGWINPNSGGTNYAQKFQGRVTMTRDTSISTAYMELSRLRSDDTAVYYCATDSFDYWGRGTLVTVSSASTKGPSVFPLAPSSKSTSGGTAALGCLVKDYFPEPVTVSWNSGALTSGVHTFPAVLQSSGLYSLSSVVTVPSSSLGTQTYICNVNHKPSNTKVDKRV[human IgG1 Fc not spelt out]
light: QSVLTQPPSVSGAPGQRVTISCTGSSSNIGAGYDVLWYRQLPGTAPKLLIYGNTHRPSGVPDRFSGSNSGTSASLAITGLQAEDEADYYCQSYDSSLSGSVFGGGTKLTVLQPKANPTVTLFPPSSEELQANKATLVCLISDFYPGAVTVAWKADGSPVKAGVETTKPSKQSNNKYAASSYLSLTPEQWKSHRSYSCQVTHEGSTVEKTVAPTECS
As for B9, in assay [1], the hN1 (IC50, nM), Jag2-induced Notch1-Gal4 luciferase reporter turned out to be 61 nM. Moreover, the hN2, inhibition of Luc activity at [166 nM] Mab in assay [2] is below 10%.

B10: WC-97 (antibody, human IgG1, lambda)
heavy: EVQLVQSGAEVKKPGASVKVSCKASGYNFTGYYMHWVRQAPGQGLEWMGWINPNSGGTNYAQKFQGRVAMTRDTSISTAYMELSRLRSDDSAVYYCATDSFDYWGRGTTVTVSSASTKGPSVFPLAPSSKSTSGGTAALGCLVKDYFPEPVTVSWNSGALTSGVHTFPAVLQSSGLYSLSSVVTVPSSSLGTQTYICNVNHKPSNTKVDKRV[human IgG1 Fc not spelt out]
light: QSVLTQPPSVSGAPGQRVTISCTGTSSNIGAGYDVQWYQQLPGTAPKVLMYGNSNRPSGVPDRFSGSKSGTSASLAITGLQAEDEADYYCQSYDSSLSGSLFGTGTKVTVLQPKANPTVTLFPPSSEELQANKATLVCLISDFYPGAVTVAWKADGSPVKAGVETTKPSKQSNNKYAASSYLSLTPEQWKSHRSYSCQVTHEGSTVEKTVAPTECS
B10 yielded a hN1 (IC50, nM), Jag2-induced Notch1-Gal4 luciferase reporter in assay [1] of 152 nM. Also, in assay [2], the hN2, inhibition of Luc activity at [166 nM] Mab is below 10%.

B11: S3-009 (antibody, human IgG1, lambda)
heavy: EVQLVQSGAEVKKPGASVKVSCKASGYNFTGYYMHWVRQAPGQGLEWMGWINPNSGGTNYAQKFQGRVTMTRDTSISTAYMELSRLRSDDTAVYYCATDSFDYWGQGTMVTVSSASTKGPSVFPLAPSSKSTSGGTAALGCLVKDYFPEPVTVSWNSGALTSGVHTFPAVLQSSGLYSLSSVVTVPSSSLGTQTYICNVNHKPSNTKVDKRV[human IgG1 Fc not spelt out]
light: SYVLTQPPSVSEAPRQRVTISCSGSSSNIGNNAVSWYQQLPGKAPKTLIYYDDLLSSGVSDRFSGSRSGTSASLAISGLQSEDEADYYCAAWDDSLNGVVFGGGTKLTVLQPKANPTVTLFPPSSEELQANKATLVCLISDFYPGAVTVAWKADGSPVKAGVETTKPSKQSNNKYAASSYLSLTPEQWKSHRSYSCQVTHEGSTVEKTVAPTECS
In assay [1], B11 showed a hN1 (IC50, nM), Jag2-induced Notch1-Gal4 luciferase reporter of 12 nM. Further, the hN2, inhibition of Luc activity at [166 nM] Mab in assay [2] is below 10%.
